Screen size: about 310,000 compounds; about 2,200 (0.71%) showed an effect of 50% or more. The effect is printed as a negative number. Some of the results follow.
Molecular target: human ether-à-go-go-related gene (hERG) potassium channel (human, UniProt Q12809)
Assay: primary screen, population patch clamp on CHO cells stably expressing hERG

Sequence of human ether-à-go-go-related gene (hERG) potassium channel (Q12809 whole entry, looked up): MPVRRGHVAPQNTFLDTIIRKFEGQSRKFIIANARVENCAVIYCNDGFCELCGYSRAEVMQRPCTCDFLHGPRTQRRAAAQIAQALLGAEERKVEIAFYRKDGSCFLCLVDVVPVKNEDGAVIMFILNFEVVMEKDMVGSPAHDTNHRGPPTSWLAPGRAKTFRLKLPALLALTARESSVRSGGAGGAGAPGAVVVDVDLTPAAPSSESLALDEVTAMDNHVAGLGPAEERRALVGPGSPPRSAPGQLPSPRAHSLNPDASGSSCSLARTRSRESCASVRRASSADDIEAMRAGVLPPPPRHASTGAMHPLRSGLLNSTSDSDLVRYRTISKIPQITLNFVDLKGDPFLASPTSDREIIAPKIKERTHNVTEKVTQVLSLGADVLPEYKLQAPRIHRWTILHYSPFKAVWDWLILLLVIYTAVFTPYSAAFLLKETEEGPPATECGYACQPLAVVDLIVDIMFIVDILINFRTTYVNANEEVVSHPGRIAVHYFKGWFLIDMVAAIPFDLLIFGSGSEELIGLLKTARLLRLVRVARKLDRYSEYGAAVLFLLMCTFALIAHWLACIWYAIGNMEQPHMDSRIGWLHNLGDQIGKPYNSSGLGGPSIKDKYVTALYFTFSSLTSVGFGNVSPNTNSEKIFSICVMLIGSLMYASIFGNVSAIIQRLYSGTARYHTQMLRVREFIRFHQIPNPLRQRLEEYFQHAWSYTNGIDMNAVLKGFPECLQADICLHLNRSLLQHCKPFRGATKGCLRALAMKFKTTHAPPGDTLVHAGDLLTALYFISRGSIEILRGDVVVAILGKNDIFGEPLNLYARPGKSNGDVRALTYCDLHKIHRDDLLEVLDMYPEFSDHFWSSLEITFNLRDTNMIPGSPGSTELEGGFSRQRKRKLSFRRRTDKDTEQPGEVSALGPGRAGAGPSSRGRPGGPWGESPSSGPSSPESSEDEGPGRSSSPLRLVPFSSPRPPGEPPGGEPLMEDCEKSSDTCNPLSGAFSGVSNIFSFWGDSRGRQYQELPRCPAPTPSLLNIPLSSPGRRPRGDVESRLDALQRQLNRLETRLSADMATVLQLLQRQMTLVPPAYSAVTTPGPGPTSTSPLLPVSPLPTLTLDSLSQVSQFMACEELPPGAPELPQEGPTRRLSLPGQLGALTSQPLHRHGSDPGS

SMILES | hERG current change (%, negative = inhibition) at 1uM
Cc1c(-c2ccccc2)cn2c1-c1ccc(C)n1CC2 | 11%
N#Cc1cc(Oc2ccc(Cl)cc2)c(N2CCOCC2)cc1C#N | 7.48%
O=C(Cn1c(=O)cnc2ccccc21)N1CCN(S(=O)(=O)c2cccc([N+](=O)[O-])c2)CC1 | 3.24%
C=CCNC(=O)c1sccc1Oc1ccc(F)cc1[N+](=O)[O-] | 8.88%
O=C(NCC(c1ccco1)N1CCc2ccccc2C1)c1ccc(F)cc1 (centres unmarked) | 6.35%
CC(=O)c1cccc(NC(=O)c2cc(-c3ccco3)nc3ccccc23)c1 | 13%
CN(C)S(=O)(=O)c1cccc(NC(=S)N/N=C/C(c2ccccc2)c2ccccc2)c1 | -0.478%
O=C(O)c1ccccc1-c1nnc2c(Cl)cc(C(F)(F)F)cn12 | 13.8%
Cc1cc(C)n(-c2ccc(C(=O)OCC(=O)NCc3ccc(F)cc3)cc2)n1 | 5.05%
Nc1c(Cl)cc(C2=NCCn3nc4cc([N+](=O)[O-])ccc4c32)cc1Cl | 0.193%
CN(C)CCCNC(=O)c1ccccn1 | -0.119%
CCCCCCSC1=C(C#N)C(=O)NC2(CCCCC2)S1 | 15.8%
O=S(=O)(c1ccc2c(c1)OCCO2)N1CCC(O)(c2ccc(Cl)cc2)CC1 | 12.8%
CCCNC(=O)C(Sc1ccccc1)c1ccccc1 (centres unmarked) | 11.6%
O=C(NNC(=S)Nc1ccccc1)c1ccc2ncccc2c1 | 25.6%
Cc1onc(-c2c(Cl)cccc2Cl)c1C(=O)N(C)Cc1ccccc1 | 13.9%
CCN(CC)C(=O)C1CCCN(Cc2ccccc2F)C1 (centres unmarked) | 14.8%
COc1ccc2nc(NC(=O)c3cc(C)oc3C)sc2c1 | 9.47%
CNCCCOc1cccc(Oc2ccccc2)c1.O=C(O)C(=O)O | 2.63%

SMILES | hERG current change (%, negative = inhibition) at 1uM
CN(N)N=Nc1nc2c([nH]1)c(=O)n(C)c(=O)n2C | 8.61%
CCc1ccc2[nH]c(O)c(N=Nc3nc(-c4ccccc4)cs3)c2c1 | 3.9%
CC(C)C(C(=O)NCC1CCCO1)N(Cc1ccco1)C(=O)CNS(=O)(=O)c1ccccc1 (centres unmarked) | 11.3%
O=C1C2CCCN2C(=O)N1CCCN1CCN(c2cccc(Cl)c2)CC1 (centres unmarked) | 3.46%
CN1CCC(=C(c2ccccc2)c2ccc(Br)cc2)CC1.Cl | -17.8%
Cc1ccc(CNC(=O)CS(=O)Cc2nc(-c3ccccc3Cl)oc2C)cc1 (centres unmarked) | 13.6%
COc1ccc(S(=O)(=O)N2CCCOC2CNC(=O)C(=O)NCCCn2ccnc2)cc1 (centres unmarked) | 4.48%
CC(NC(=O)N1CCN(c2ccccc2F)CC1)c1ccc(F)c(F)c1 (centres unmarked) | 18.4%
CCCN1CCCC(C(=O)c2cc(C)c(OC)c(C)c2)C1 (centres unmarked) | 9.9%
O=C(Nc1nc2ccsc2c(=O)s1)c1ccco1 | 8.69%
Nc1cc(=O)[nH]c(SCc2ccc(Cl)cc2Cl)n1 | 12.2%
Cc1ccc(NC(=O)CCNS(=O)(=O)c2ccccc2)cc1S(=O)(=O)N1CCOCC1 | 18.1%
Cc1ccc(C(=O)Nc2ccc3c(c2)nc2n3CCSC2)cc1 | -10.9%
C=CCNC(=O)C1CCN(c2cnccn2)CC1 | 12.1%
O=C(CSc1nnc(-c2ccco2)n1Cc1ccccc1)NCc1ccccc1 | 1.17%
COc1ccc(C(=O)NC(C)c2ccccc2)cc1Br (centres unmarked) | 9.26%
Cc1cc(C)nc(Nc2n[nH]c(-c3cccc4ccccc34)n2)n1 | -4.86%
COc1ccccc1CCC(=O)OCC(=O)NC1CCCC1 | 6.62%
COc1ccc(C[C@H]2CN3C(=NC[C@@H]3C(C)C)N2CCNC(=O)c2ccc(C)c(Br)c2)cc1 | -66.8%

SMILES | hERG current change (%, negative = inhibition) at 1uM
O=C(C1CCCN1S(=O)(=O)c1ccc(Cl)cc1)N1CCOCC1 (centres unmarked) | 6.33%
CCOC(=O)C1C2C=CC3(CN(CCc4ccccc4)C(=O)C13)O2 (centres unmarked) | 11%
O=C(Nc1ccc(Cc2ccncc2)cc1)c1cccs1 | 5.03%
CC(C)(C)C(=O)Nc1cc(S(=O)(=O)Nc2ccc(Cl)cc2)ccc1O | 12.2%
Cc1cccc(C(=O)OCC(=O)c2ccc(CC(=O)N3CCOCC3)s2)c1C | -2.12%
O=C(Nc1ccc(N2CCCC2)c(Cl)c1)c1ccc(Br)o1 | 11.2%
NC(=O)CC(NC(=O)c1ccccc1)c1ccc(NCCOc2ccccc2)c([N+](=O)[O-])c1 (centres unmarked) | 3.88%
Cc1csc2c(N3CCN(C(=O)Nc4ccccc4)CC3)ncnc12 | 3.23%
COc1ccc2nc(NC(=O)CN(C)S(=O)(=O)c3cccs3)sc2c1 | -0.451%
COc1ccc(C(=O)Nc2cccc(C(=O)N3CCCC3)c2)cc1 | 8.03%
COc1ccc(Cl)cc1NC(=O)c1c(-c2ccccc2)noc1C | 11.2%
CSCCCc1cn([C@@H](CO)C(=O)NCCCCCCCCCCC(=O)N2CCNCC2)nn1 | 14.6%
COc1cccc(C(=O)NC2CC3CCCC(C2)N3CC(=O)Nc2ccc(N(C)C)cc2)c1 (centres unmarked) | -7.26%
CC(=O)NC(Cc1c[nH]c2ccccc12)C(=O)NCCc1ccccc1 (centres unmarked) | 15%
CCN(CC(=O)Nc1ccc2c(c1)OCCO2)C(=O)/C=C/c1cccc(OC)c1OC | 15.4%
O=C1NC(=O)C(CC(=O)N(Cc2cccs2)C2(C(=O)NC3CCCCC3)CCCCC2)N1 (centres unmarked) | 12%
COc1cc(NC(=O)[C@@H]2CCCN2S(=O)(=O)c2cccc3cccnc23)cc(OC)c1OC | 8.88%
O=C(CN1C(=O)c2ccc([N+](=O)[O-])cc2C1=O)Nc1nccs1 | 9.83%
